Experimental data reported in the supplement of paper PMC8728848.
The list shows a part of the results.

Tests used:
Assay in all cases: glycan array binding signal (z-score within array); higher = stronger binding
Details in all cases: glycan notation: IUPAC condensed, linker removed
Gal(b1-4)GlcNAc = molecular target: Gal(b1-4)GlcNAc
How it was run: (§1)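 Glycan array binding is given as a within-array Z-score, which can be read as non-binding when negative. The arrays, 3228 of them, came from the Consortium for Functional Glycomics database and were retained only where the protein sequence was available. Z-scores were averaged across arrays of the same protein sequence at different concentrations or buffers and across linkers.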

[1] = molecular target: Gal(b1-4)GlcNAc(a1-6)Gal(b1-4)GlcNAc
How it was run: as §1

Gal(b1-4)GlcNAc(b1-2)Man = molecular target: Gal(b1-4)GlcNAc(b1-2)Man
How it was run: as §1

[2] = molecular target: Gal(b1-4)GlcNAc(b1-2)Man(a1-3)Man(b1-4)GlcNAc(b1-4)GlcNAc
How it was run: as §1

[3] = molecular target: Gal(b1-4)GlcNAc(b1-2)Man(a1-3)[Gal(b1-4)GlcNAc(b1-2)Man(a1-6)]Man(b1-4)GlcNAc(b1-4)GlcNAc
How it was run: as §1

[4] = molecular target: Gal(b1-4)GlcNAc(b1-2)Man(a1-3)[Gal(b1-4)GlcNAc(b1-2)Man(a1-6)]Man(b1-4)GlcNAc(b1-4)[Fuc(a1-6)]GlcNAc
How it was run: as §1

[5] = molecular target: Gal(b1-4)GlcNAc(b1-2)Man(a1-3)[Gal(b1-4)GlcNAc(b1-2)Man(a1-6)][Gal(b1-4)GlcNAc(b1-4)]Man(b1-4)GlcNAc(b1-4)[Fuc(a1-6)]GlcNAc
How it was run: as §1

[6] = molecular target: Gal(b1-4)GlcNAc(b1-2)Man(a1-3)[Gal(b1-4)GlcNAc(b1-2)Man(a1-6)][GlcNAc(b1-4)]Man(b1-4)GlcNAc(b1-4)[Fuc(a1-6)]GlcNAc
How it was run: as §1

[7] = molecular target: Gal(b1-4)GlcNAc(b1-2)Man(a1-3)[GlcNAc(b1-2)Man(a1-6)]Man(b1-4)GlcNAc(b1-4)GlcNAc
How it was run: as §1

[8] = molecular target: Gal(b1-4)GlcNAc(b1-2)Man(a1-3)[GlcNAc(b1-4)][Gal(b1-4)GlcNAc(b1-2)Man(a1-6)]Man(b1-4)GlcNAc(b1-4)GlcNAc
How it was run: as §1

[9] = molecular target: Gal(b1-4)GlcNAc(b1-2)Man(a1-3)[Man(a1-6)]Man(b1-4)GlcNAc(b1-4)GlcNAc
How it was run: as §1

[10] = molecular target: Gal(b1-4)GlcNAc(b1-2)Man(a1-6)Man(b1-4)GlcNAc(b1-4)GlcNAc
How it was run: as §1

[11] = molecular target: Gal(b1-4)GlcNAc(b1-2)Man(a1-6)[GlcNAc(b1-2)Man(a1-3)]Man(b1-4)GlcNAc(b1-4)GlcNAc
How it was run: as §1

[12] = molecular target: Gal(b1-4)GlcNAc(b1-2)Man(a1-6)[Man(a1-3)]Man(b1-4)GlcNAc(b1-4)GlcNAc
How it was run: as §1

[13] = molecular target: Gal(b1-4)GlcNAc(b1-2)[Gal(b1-4)GlcNAc(b1-4)]Man(a1-3)[Gal(b1-4)GlcNAc(b1-2)Man(a1-6)]Man(b1-4)GlcNAc(b1-4)GlcNAc
How it was run: as §1

[14] = molecular target: Gal(b1-4)GlcNAc(b1-2)[Gal(b1-4)GlcNAc(b1-4)]Man(a1-3)[Gal(b1-4)GlcNAc(b1-2)[Gal(b1-4)GlcNAc(b1-6)]Man(a1-6)]Man(b1-4)GlcNAc(b1-4)GlcNAc
How it was run: as §1

[15] = molecular target: Gal(b1-4)GlcNAc(b1-2)[Gal(b1-4)GlcNAc(b1-4)]Man(a1-3)[GlcNAc(b1-4)][Gal(b1-4)GlcNAc(b1-2)Man(a1-6)]Man(b1-4)GlcNAc(b1-4)GlcNAc
How it was run: as §1

[16] = molecular target: Gal(b1-4)GlcNAc(b1-2)[Gal(b1-4)GlcNAc(b1-4)]Man(a1-3)[GlcNAc(b1-4)][Gal(b1-4)GlcNAc(b1-2)[Gal(b1-4)GlcNAc(b1-6)]Man(a1-6)]Man(b1-4)GlcNAc(b1-4)GlcNAc
How it was run: as §1

[17] = molecular target: Gal(b1-4)GlcNAc(b1-2)[Gal(b1-4)GlcNAc(b1-6)]Man(a1-6)[Gal(b1-4)GlcNAc(b1-2)Man(a1-3)]Man(b1-4)GlcNAc(b1-4)GlcNAc
How it was run: as §1

[18] = molecular target: Gal(b1-4)GlcNAc(b1-2)[Gal(b1-4)GlcNAc(b1-6)]Man(a1-6)[Gal(b1-4)GlcNAc(b1-2)Man(a1-3)]Man(b1-4)GlcNAc(b1-4)[Fuc(a1-6)]GlcNAc
How it was run: as §1

[19] = molecular target: Gal(b1-4)GlcNAc(b1-2)[Gal(b1-4)GlcNAc(b1-6)]Man(a1-6)[GlcNAc(b1-4)][Gal(b1-4)GlcNAc(b1-2)Man(a1-3)]Man(b1-4)GlcNAc(b1-4)GlcNAc
How it was run: as §1

[20] = molecular target: Gal(b1-4)GlcNAc(b1-2)[Gal(b1-4)GlcNAc(b1-6)]Man(a1-6)[GlcNAc(b1-4)][Gal(b1-4)GlcNAc(b1-2)[Gal(b1-4)GlcNAc(b1-4)]Man(a1-3)]Man(b1-4)GlcNAc(b1-4)[Fuc(a1-6)]GlcNAc
How it was run: as §1

[21] = molecular target: Gal(b1-4)GlcNAc(b1-3)Gal(b1-3)GalNAc
How it was run: as §1

[22] = molecular target: Gal(b1-4)GlcNAc(b1-3)Gal(b1-3)GlcNAc
How it was run: as §1

[23] = molecular target: Gal(b1-4)GlcNAc(b1-3)Gal(b1-4)Glc
How it was run: as §1

[24] = molecular target: Gal(b1-4)GlcNAc(b1-3)Gal(b1-4)GlcNAc
How it was run: as §1

[25] = molecular target: Gal(b1-4)GlcNAc(b1-3)Gal(b1-4)GlcNAc(b1-2)Man(a1-3)[Gal(b1-4)GlcNAc(b1-3)Gal(b1-4)GlcNAc(b1-2)Man(a1-6)]Man(b1-4)GlcNAc(b1-4)GlcNAc
How it was run: as §1

[26] = molecular target: Gal(b1-4)GlcNAc(b1-3)Gal(b1-4)GlcNAc(b1-2)Man(a1-3)[Gal(b1-4)GlcNAc(b1-3)Gal(b1-4)GlcNAc(b1-2)Man(a1-6)]Man(b1-4)GlcNAc(b1-4)[Fuc(a1-6)]GlcNAc
How it was run: as §1

[27] = molecular target: Gal(b1-4)GlcNAc(b1-3)Gal(b1-4)GlcNAc(b1-2)[Gal(b1-4)GlcNAc(b1-3)Gal(b1-4)GlcNAc(b1-6)]Man(a1-6)[Gal(b1-4)GlcNAc(b1-3)Gal(b1-4)GlcNAc(b1-2)Man(a1-3)]Man(b1-4)GlcNAc(b1-4)GlcNAc
How it was run: as §1

[28] = molecular target: Gal(b1-4)GlcNAc(b1-3)Gal(b1-4)GlcNAc(b1-2)[Gal(b1-4)GlcNAc(b1-3)Gal(b1-4)GlcNAc(b1-6)]Man(a1-6)[Gal(b1-4)GlcNAc(b1-3)Gal(b1-4)GlcNAc(b1-2)Man(a1-3)]Man(b1-4)GlcNAc(b1-4)[Fuc(a1-6)]GlcNAc
How it was run: as §1

[29] = molecular target: Gal(b1-4)GlcNAc(b1-3)Gal(b1-4)GlcNAc(b1-3)Gal(b1-4)GlcNAc
How it was run: as §1

[30] = molecular target: Gal(b1-4)GlcNAc(b1-3)Gal(b1-4)GlcNAc(b1-3)Gal(b1-4)GlcNAc(b1-2)Man(a1-3)[Gal(b1-4)GlcNAc(b1-3)Gal(b1-4)GlcNAc(b1-3)Gal(b1-4)GlcNAc(b1-2)Man(a1-6)]Man(b1-4)GlcNAc(b1-4)GlcNAc
How it was run: as §1

[31] = molecular target: Gal(b1-4)GlcNAc(b1-3)Gal(b1-4)GlcNAc(b1-3)Gal(b1-4)GlcNAc(b1-2)Man(a1-3)[Gal(b1-4)GlcNAc(b1-3)Gal(b1-4)GlcNAc(b1-3)Gal(b1-4)GlcNAc(b1-2)Man(a1-6)]Man(b1-4)GlcNAc(b1-4)[Fuc(a1-6)]GlcNAc
How it was run: as §1

[32] = molecular target: Gal(b1-4)GlcNAc(b1-3)Gal(b1-4)GlcNAc(b1-3)Gal(b1-4)GlcNAc(b1-2)[Gal(b1-4)GlcNAc(b1-3)Gal(b1-4)GlcNAc(b1-3)Gal(b1-4)GlcNAc(b1-6)]Man(a1-6)[Gal(b1-4)GlcNAc(b1-3)Gal(b1-4)GlcNAc(b1-3)Gal(b1-4)GlcNAc(b1-2)Man(a1-3)]Man(b1-4)GlcNAc(b1-4)[Fuc(a1-6)]GlcNAc
How it was run: as §1

[33] = molecular target: Gal(b1-4)GlcNAc(b1-3)Gal(b1-4)GlcNAc(b1-3)Gal(b1-4)GlcNAc(b1-3)Gal(b1-4)GlcNAc(b1-2)Man(a1-3)[Gal(b1-4)GlcNAc(b1-3)Gal(b1-4)GlcNAc(b1-3)Gal(b1-4)GlcNAc(b1-3)Gal(b1-4)GlcNAc(b1-2)Man(a1-6)]Man(b1-4)GlcNAc(b1-4)GlcNAc
How it was run: as §1

[34] = molecular target: Gal(b1-4)GlcNAc(b1-3)Gal(b1-4)GlcNAc(b1-3)Gal(b1-4)GlcNAc(b1-3)Gal(b1-4)GlcNAc(b1-2)Man(a1-3)[Gal(b1-4)GlcNAc(b1-3)Gal(b1-4)GlcNAc(b1-3)Gal(b1-4)GlcNAc(b1-3)Gal(b1-4)GlcNAc(b1-2)Man(a1-6)]Man(b1-4)GlcNAc(b1-4)[Fuc(a1-6)]GlcNAc
How it was run: as §1

[35] = molecular target: Gal(b1-4)GlcNAc(b1-3)Gal(b1-4)GlcNAc(b1-3)Gal(b1-4)GlcNAc(b1-3)Gal(b1-4)GlcNAc(b1-2)[Gal(b1-4)GlcNAc(b1-3)Gal(b1-4)GlcNAc(b1-3)Gal(b1-4)GlcNAc(b1-3)Gal(b1-4)GlcNAc(b1-6)]Man(a1-6)[Gal(b1-4)GlcNAc(b1-3)Gal(b1-4)GlcNAc(b1-3)Gal(b1-4)GlcNAc(b1-3)Gal(b1-4)GlcNAc(b1-2)Man(a1-3)]Man(b1-4)GlcNAc(b1-4)[Fuc(a1-6)]GlcNAc
How it was run: as §1

[36] = molecular target: Gal(b1-4)GlcNAc(b1-3)Gal(b1-4)GlcNAc(b1-3)Gal(b1-4)GlcNAc(b1-3)Gal(b1-4)GlcNAc(b1-3)Gal(b1-4)GlcNAc(b1-2)Man(a1-3)[Gal(b1-4)GlcNAc(b1-3)Gal(b1-4)GlcNAc(b1-3)Gal(b1-4)GlcNAc(b1-3)Gal(b1-4)GlcNAc(b1-3)Gal(b1-4)GlcNAc(b1-2)Man(a1-6)]Man(b1-4)GlcNAc(b1-4)GlcNAc
How it was run: as §1

B1: Gal 8 (Homo sapiens) (protein)
chain: MLSLNNLQNIIYNPVIPYVGTIPDQLDPGTLIVICGHVPSDADRFQVDLQNGSSVKPRADVAFHFNPRFKRAGCIVCNTLINEKWGREEITYDTPFKREKSFEIVIMVLKDKFQVAVNGKHTLLYGHRIGPEKIDTLGIYGKVNIHSIGFSFSSDLQSTQASSLELTEISRENVPKSGTPQLQTVSPSWDLQGHGSETFCSVLWTRVFLEIAFCRPIGLTVASFQSLPFAARLNTPMGPGRTVVVKGEVNANAKSFNVDLLAGKSKDIALHLNPRLNIKAFVRNSFLQESWGEEERNITSFPFSPGMYFEMIIYCDVREFKVAVNGVHSLEYKHRFKELSSIDTLEINGDIHLLEVRSW
- glycan array binding signal (z-score) (Gal(b1-4)GlcNAc): -0.376
- glycan array binding signal (z-score) [1]: -0.36
- glycan array binding signal (z-score) (Gal(b1-4)GlcNAc(b1-2)Man): -0.268
- glycan array binding signal (z-score) [2]: -0.357
- glycan array binding signal (z-score) [3]: -0.486
- glycan array binding signal (z-score) [4]: -0.357
- glycan array binding signal (z-score) [5]: -0.353
- glycan array binding signal (z-score) [6]: -0.352
- glycan array binding signal (z-score) [7]: -0.357
- glycan array binding signal (z-score) [8]: -0.356
- glycan array binding signal (z-score) [9]: -0.357
- glycan array binding signal (z-score) [10]: -0.355
- glycan array binding signal (z-score) [11]: -0.354
- glycan array binding signal (z-score) [12]: -0.358
- glycan array binding signal (z-score) [13]: -0.344
- glycan array binding signal (z-score) [14]: -0.347
- glycan array binding signal (z-score) [15]: -0.347
- glycan array binding signal (z-score) [16]: -0.33
- glycan array binding signal (z-score) [17]: -0.343
- glycan array binding signal (z-score) [18]: -0.343
- glycan array binding signal (z-score) [19]: -0.348
- glycan array binding signal (z-score) [20]: -0.343
- glycan array binding signal (z-score) [21]: 0.753
- glycan array binding signal (z-score) [22]: 1.47
- glycan array binding signal (z-score) [23]: 3.98
- glycan array binding signal (z-score) [24]: 0.951
- glycan array binding signal (z-score) [25]: 1.18
- glycan array binding signal (z-score) [26]: 3.06
- glycan array binding signal (z-score) [27]: 3.08
- glycan array binding signal (z-score) [28]: 6.42
- glycan array binding signal (z-score) [29]: 0.814
- glycan array binding signal (z-score) [30]: 2.09
- glycan array binding signal (z-score) [31]: 3.28
- glycan array binding signal (z-score) [32]: 6.12
- glycan array binding signal (z-score) [33]: 2.5
- glycan array binding signal (z-score) [34]: 3.61
- glycan array binding signal (z-score) [35]: 5.79
- glycan array binding signal (z-score) [36]: 3.28
